Measurements taken from PubChem BioAssay AID1845202 (Molecular Pharmacology Branch, DTP, NCI, 2023).
Not every entry of the source has a single result; some have several. This list holds those alone. An entry can have further records. Results that share an entry are repeated measurements (runs, samples, wells, individuals or studies).

System: DMS 114 tumor spheroids, viability % test/control
Experiment: Anticancer human tumor DMS 114 cell line growth inhibition;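 further: luminescence used as a proxy for viable cells; spheroids exposed to compounds for 7 days before read-out; 100% = DMSO vehicle control viability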
Conditions: stronger effect = lower value, spheroids with HUVEC and MSC
Source text: Multicellular complex tumor spheroid response to DNA repair inhibitors in combination with DNA-damaging drugs
This study explores the anticancer activities of DNA-damaging drugs and inhibitors of DNA damage repair, both as single agents and in combinations. Complex tumor spheroids comprised of malignant cells, endothelial cells and mesenchymal stem cells served as an in vitro model for human solid tumors. This model system incorporates physiologically relevant features and patient-derived or established malignant cell lines with clinically relevant genetic alterations from many tumor types. Twenty-six patient-derived or established malignant cell lines were evaluated representing sarcoma, melanoma, small cell lung cancer (SCLC), non-small cell lung cancer (NSCLC), as well as bladder, ovarian and pancreatic cancers. The concentration ranges selected for each drug and investigational agent were based upon clinically achievable concentrations if the clinical Cmax of the agent was known.
Compounds. […] If the clinical Cmax for an agent had not been determined, the highest concentration tested was 10 microM. […]

SMILES	viability, T/C (compound alone 0.00949 µM)	viability, T/C (compound alone 100 µM)
CC[C@@]1(O)C(=O)OCc2c1cc1n(c2=O)Cc2cc3c(CN(C)C)c(O)ccc3nc2-1	98.5, 90.3, 109, 93.3, 93, 85.2, 90.5, 92.7, 90.4, 80.9%	–
Cn1nnc2c(C(N)=O)ncn2c1=O	–	117, 97.3, 93.2, 108, 106, 91.9, 99.7, 96.6, 92.8, 94.4%
